From the antibiotic and cytotoxicity screens of Wong et al. (2023)
The list shows a part of the results.

Assays:
[1] = tested on: HSkMC (human skeletal muscle cells); assay: cytotoxicity call (relative viability < 0.9); details: 10 µM
[2] = tested on: HepG2; assay: cytotoxicity call (relative viability < 0.9); details: 10 µM
[3] = tested on: S. aureus RN4220; assay: growth inhibition call (relative growth <= 0.2); details: 50 µM

C[C@@H]1CCCCO[C@@H](CN(C)S(=O)(=O)c2cn(C)cn2)[C@@H](C)CN([C@H](C)CO)C(=O)c2cc(NS(C)(=O)=O)ccc2O1
cytotoxicity call [1]: inactive | cytotoxicity call [2]: inactive | growth inhibition call [3]: inactive

C[C@H]1CN([C@@H](C)CO)S(=O)(=O)c2ccc(C#Cc3ccncc3)cc2O[C@H]1CN(C)S(=O)(=O)c1ccc(F)cc1
cytotoxicity call [1]: inactive | cytotoxicity call [2]: active | growth inhibition call [3]: inactive

CC(C)C#Cc1ccc2c(c1)O[C@H](CN(C)S(=O)(=O)c1cn(C)cn1)[C@H](C)CN([C@@H](C)CO)S2(=O)=O
cytotoxicity call [1]: inactive | cytotoxicity call [2]: inactive | growth inhibition call [3]: inactive

C[C@@H]1CN([C@H](C)CO)C(=O)Cc2cc(NC(=O)Cc3ccccc3)ccc2O[C@@H]1CN(C)S(C)(=O)=O
cytotoxicity call [1]: inactive | cytotoxicity call [2]: inactive | growth inhibition call [3]: inactive

CC(C)NC(=O)N(C)C[C@H]1OCCCC[C@@H](C)Oc2ccc(NS(C)(=O)=O)cc2C(=O)N([C@H](C)CO)C[C@H]1C
cytotoxicity call [1]: inactive | cytotoxicity call [2]: inactive | growth inhibition call [3]: inactive

C[C@H]1CN([C@@H](C)CO)C(=O)CCCn2nncc2CO[C@H]1CN(C)C(=O)Nc1ccc2c(c1)OCCO2
cytotoxicity call [1]: inactive | cytotoxicity call [2]: inactive | growth inhibition call [3]: inactive

C[C@H](CO)N1C[C@H](C)[C@H](CN(C)C(=O)Nc2cccc3ccccc23)Oc2c(NC(=O)NC3CCCCC3)cccc2C1=O
cytotoxicity call [1]: inactive | cytotoxicity call [2]: inactive | growth inhibition call [3]: inactive
